No constants are given. Whether binding was seen depends on the method and setting. For some of these results: Binding seen in cells or lysates may run through a third protein. Sequences can lack the tags named with a protein. Some binding calls cover weakened binding; strength is not graded here.
T1: Clp1aa.1-371, GAL4 DNA binding domain fusion (S. pombe) (UniProt Q9P7H1)
T1 sequence: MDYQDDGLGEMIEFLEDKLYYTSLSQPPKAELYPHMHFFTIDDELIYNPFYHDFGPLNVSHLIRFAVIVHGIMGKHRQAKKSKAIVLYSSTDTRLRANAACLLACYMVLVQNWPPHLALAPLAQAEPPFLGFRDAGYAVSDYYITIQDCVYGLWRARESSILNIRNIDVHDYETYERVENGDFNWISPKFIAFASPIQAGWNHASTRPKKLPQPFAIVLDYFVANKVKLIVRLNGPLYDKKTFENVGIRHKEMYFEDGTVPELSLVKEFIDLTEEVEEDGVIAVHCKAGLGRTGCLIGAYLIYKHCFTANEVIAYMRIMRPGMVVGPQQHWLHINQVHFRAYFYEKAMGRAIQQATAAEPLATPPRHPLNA

The chains behind the UniProt entries cited, without tags or fusion partners.
UniProt P53350: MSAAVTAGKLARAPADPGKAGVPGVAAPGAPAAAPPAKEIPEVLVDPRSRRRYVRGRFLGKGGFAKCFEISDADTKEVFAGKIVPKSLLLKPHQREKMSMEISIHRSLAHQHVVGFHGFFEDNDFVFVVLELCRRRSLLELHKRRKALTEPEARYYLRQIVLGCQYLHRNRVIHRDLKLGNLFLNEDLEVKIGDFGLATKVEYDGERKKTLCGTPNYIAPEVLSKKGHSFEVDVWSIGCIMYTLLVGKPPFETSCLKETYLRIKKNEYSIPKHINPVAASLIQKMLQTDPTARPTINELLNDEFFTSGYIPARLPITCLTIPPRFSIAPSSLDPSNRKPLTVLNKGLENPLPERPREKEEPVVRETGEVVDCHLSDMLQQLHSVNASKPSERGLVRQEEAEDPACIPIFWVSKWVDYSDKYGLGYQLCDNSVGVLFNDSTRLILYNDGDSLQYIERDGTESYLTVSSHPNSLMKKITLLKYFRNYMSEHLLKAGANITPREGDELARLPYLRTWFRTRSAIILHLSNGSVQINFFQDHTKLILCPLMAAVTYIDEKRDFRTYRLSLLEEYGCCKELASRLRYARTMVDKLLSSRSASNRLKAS

T2: Ark1p (wild-type), LexA DNA binding domain fusion (S. pombe) (UniProt O59790)
T2 sequence: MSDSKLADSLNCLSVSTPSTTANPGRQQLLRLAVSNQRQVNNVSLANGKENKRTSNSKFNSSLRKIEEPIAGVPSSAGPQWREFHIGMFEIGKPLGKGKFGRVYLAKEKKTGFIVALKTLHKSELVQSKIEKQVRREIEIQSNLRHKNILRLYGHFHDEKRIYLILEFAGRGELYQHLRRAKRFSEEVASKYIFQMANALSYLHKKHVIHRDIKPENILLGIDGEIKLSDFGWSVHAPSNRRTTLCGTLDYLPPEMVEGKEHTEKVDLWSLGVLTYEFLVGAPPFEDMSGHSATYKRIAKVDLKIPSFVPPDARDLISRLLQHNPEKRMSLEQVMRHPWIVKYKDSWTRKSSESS

T3: Plo1p (wild-type), LexA DNA binding domain fusion (S. pombe) (UniProt P50528)
T3 sequence: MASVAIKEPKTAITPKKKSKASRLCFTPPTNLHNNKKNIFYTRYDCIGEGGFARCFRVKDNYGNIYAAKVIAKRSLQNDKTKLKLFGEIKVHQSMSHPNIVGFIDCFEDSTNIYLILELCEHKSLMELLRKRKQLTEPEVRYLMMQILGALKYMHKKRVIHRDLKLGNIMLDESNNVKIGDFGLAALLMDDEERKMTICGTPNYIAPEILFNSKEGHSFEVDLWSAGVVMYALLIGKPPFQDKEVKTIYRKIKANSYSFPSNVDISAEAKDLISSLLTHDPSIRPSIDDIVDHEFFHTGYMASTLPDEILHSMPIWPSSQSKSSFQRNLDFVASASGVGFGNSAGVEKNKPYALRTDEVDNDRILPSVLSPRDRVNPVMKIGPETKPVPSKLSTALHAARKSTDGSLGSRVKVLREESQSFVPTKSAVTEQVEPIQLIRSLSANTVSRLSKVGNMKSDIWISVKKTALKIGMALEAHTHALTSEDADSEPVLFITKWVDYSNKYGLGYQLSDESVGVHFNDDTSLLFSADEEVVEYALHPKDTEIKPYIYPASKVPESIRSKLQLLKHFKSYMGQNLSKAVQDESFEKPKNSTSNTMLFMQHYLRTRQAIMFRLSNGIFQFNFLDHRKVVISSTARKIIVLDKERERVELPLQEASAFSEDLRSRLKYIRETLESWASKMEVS


Legend:
[1] = molecular target: Human polo-like kinase 1 (Plk1) (human) (UniProt P53350); assay: co-IP; HEK293 cells transfected with tagged ESCRT proteins; 1 mg lysate with 12.8 ug anti-Plk1 antibody overnight at 4 C, Protein A sepharose; washes with 100 mM KCl and with 250 mM NaCl, 1% Triton X-100; immunoblot with anti-GFP or anti-myc
[2] = molecular target: T1, Clp1aa.1-371, GAL4 DNA binding domain fusion (S. pombe); assay: two-hybrid; bait Clp1p fused to GAL4 DNA binding domain, prey ESCRT proteins fused to GAL4 transcription activation domain; budding yeast with GAL4-galactosidase readout; X-gal overlay; interaction read from the lack of transcriptional readout of the auto-activating bait Clp1aa.1-371
[3] = molecular target: T2, Ark1p (wild-type), LexA DNA binding domain fusion (S. pombe); assay: two-hybrid; bait fused to LexA DNA binding domain (Plo1p or Ark1p), prey ESCRT proteins fused to GAL4 transcription activation domain; budding yeast with LEXA-galactosidase readout; three days on selective medium, X-gal overlay; qualitative
[4] = molecular target: T3, Plo1p (wild-type), LexA DNA binding domain fusion (S. pombe); assay: as above

binding [1] | binding [2] | binding [3] | binding [4] | Binder
no binding | – | – | – | FIP3-GFP (protein, UniProt O75154 1-756) MASAPPASPPGSEPPGPDPEPGGPDGPGAAQLAPGPAELRLGAPVGGPDPQSPGLDEPAPGAAADGGARWSAGPAPGLEGGPRDPGPSAPPPRSGPRGQLASPDAPGPGPRSEAPLPELDPLFSWTEEPEECGPASCPESAPFRLQGSSSSHRARGEVDVFSPFPAPTAGELALEQGPGSPPQPSDLSQTHPLPSEPVGSQEDGPRLRAVFDALDGDGDGFVRIEDFIQFATVYGAEQVKDLTKYLDPSGLGVISFEDFYQGITAIRNGDPDGQCYGGVASAQDEEPLACPDEFDDFVTYEANEVTDSAYMGSESTYSECETFTDEDTSTLVHPELQPEGDADSAGGSAVPSECLDAMEEPDHGALLLLPGRPHPHGQSVITVIGGEEHFEDYGEGSEAELSPETLCNGQLGCSDPAFLTPSPTKRLSSKKVARYLHQSGALTMEALEDPSPELMEGPEEDIADKVVFLERRVLELEKDTAATGEQHSRLRQENLQLVHRANALEEQLKEQELRACEMVLEETRRQKELLCKMEREKSIEIENLQTRLQQLDEENSELRSCTPCLKANIERLEEEKQKLLDEIESLTLRLSEEQENKRRMGDRLSHERHQFQRDKEATQELIEDLRKQLEHLQLLKLEAEQRRGRSSSMGLQEYHSRARESELEQEVRRLKQDNRNLKEQNEELNGQIITLSIQGAKSLFSTAFSESLAAEISSVSRDELMEAIQKQEEINFRLQDYIDRIIVAIMETNPSILEVK
– | no binding | no binding | binds | Vps20p (ESCRT-III), GAL4 transcription activation domain fusion (protein, UniProt O94318 1-226) MGVNSSKINDKDRSILSIKEQRDKLLRYSKRLEKIEQLEIDIARKCLRDSDKRGALRALKAKKLYSGLITQTYGQLGNIEQLLSTIEFTLIQKDVMFGLQEGTNLIRQLQADMPLERVGRICNDRDEAMSYVDEVNDMLQGRMSRDQEDEIQEELDSLIREQEDEKVKDLEKPGFTPSTGVDVLPSVPLKNAIPSLDESFPKAASVSNTSSAVVIDEELRKDPVLG

Source: paper PMC4214795
